PubChem BioAssay AID686979 (National Center for Advancing Translational Sciences (NCATS), 2013)
About 50,000 (12%) of roughly 420,000 compounds were called active. The shares of active, inactive and inconclusive entries below differ from those in the screen. Calls follow the shape of the dose curve; as a rule, active = well fitted inhibition curve with a large enough effect; inconclusive = small, poorly fitted or top-dose-only effect; inactive = flat fitted curve, though single readings scatter. No potency is given beside an inconclusive call; the fits are too rough.

Assay: qHTS for Inhibitors of human tyrosyl-DNA phosphodiesterase 1 (TDP1): qHTS in cells in presence of CPT; also: nearly all actives have a fitted effect of over 55% in size
Details: chicken DT40 Tdp1-/-;hTDP1 cells + 20 nM CPT, ATP luminescence, 48 h; activity change, negative = growth inhibition: at 46.2 µM (top of the series) unless noted
Method in brief: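 Cell growth measured by CellTiter-Glo luminescence after a minimum 48 h, 37 C compound exposure with 20 nM CPT in Tdp1-knockout DT40 cells stably expressing hTDP1, seeded 400/well; qHTS titration format.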
% is scaled to controls: 0 for no effect and ±100 for the full control effect; potency is read from the fitted curve at half-maximal effect; tags tell the direction and shape of the fitted curve.

SMILES | activity change, negative = growth inhibition | Potency
CC(C)Cc1nnc(NS(=O)(=O)c2ccc([N+](=O)[O-])cc2)s1 | inactive: -9.58% | 
CCCCCCCCCCCCCCCC[N+](C)(C)Cc1ccc(F)cc1 |  | active: 6.51 µM
CCOc1ccccc1C(=O)NCC(=O)N(C)Cc1ccccc1C |  | inconclusive [inhibitor, partial curve, poor fit]
CC(Sc1nn(-c2ccccc2)c(=S)s1)C(=O)NCC1CCCO1 (stereo unspecified) | inactive: -22.3% | 
CCNC(=O)c1cc(Cl)ccc1OC | inactive: -3.73% | 
CC(C)(C)OC(=O)N1CCN(C(c2ccnc3ccccc23)c2nnnn2-c2ccc3c(c2)OCCO3)CC1 (stereo unspecified) |  | inconclusive [inhibitor, single point]
Cc1cccc(C(=O)N2c3ncnn3C3(CCCCC3)[C@@H]3CCCC[C@@H]32)c1 |  | inconclusive [inhibitor, single point]
CC(NC(=O)c1cccc(S(=O)(=O)N2CCN(C)CC2)c1)c1ccc(Cl)cc1Cl (stereo unspecified) |  | inconclusive [inhibitor, single point]
COc1cccc(CNS(=O)(=O)c2csc(C(N)=O)c2)c1 | inactive: -15.7% | 
N#C/C(=N\Nc1cc(Cl)cc(Cl)c1)c1nnc2n1CCCCC2 |  | inconclusive [inhibitor, single point]
CCc1cccc(N2C(=O)CS(=O)(=O)C23C(=O)N(Cc2ccccc2)c2ccc(C)cc23)c1 (stereo unspecified) |  | inconclusive [inhibitor, single point]
COc1ccc(CN(C)C(=O)c2cccc(S(=O)(=O)N3CCCc4ccccc43)c2)c(OC)c1OC |  | active: 18.4 µM
COc1cc(C=CC(=O)N2CCN(CC(=O)N3CCCC3)CC2)cc(OC)c1OC | inactive: 11.8% | 
O=C(COc1ccccc1Cl)Nc1cccc(S(=O)(=O)NC2=NCCCCC2)c1 |  | inconclusive [inhibitor, single point]
CC(Oc1ccc(Cl)cc1Cl)C(=O)NC(=S)N1CCc2ccccc21 (stereo unspecified) |  | inconclusive [inhibitor, single point]
Cc1c(C(=O)Nc2ccc(F)cc2)oc2ccc(S(=O)(=O)N3CCCCCC3)cc12 |  | active: 18.4 µM
CCOc1ccc(CN2C(=O)C(=O)c3cccc(C)c32)cc1OC |  | inconclusive [inhibitor, full curve, poor fit]
CN(C)c1cc(-c2ccc(Cl)c(Cl)c2)oc(=O)c1Cl |  | inconclusive [inhibitor, single point]
COc1nnc(-c2ccc(C)c(S(=O)(=O)NCC3CCCO3)c2)c2ccccc12 (stereo unspecified) |  | inconclusive [inhibitor, full curve]
Cc1cccc(Nc2cc(C)nc(-n3nc(C)cc3C)n2)c1 |  | active: 3.26 µM
C=CCn1c(CCn2c3ccccc3c3ccccc32)n[nH]c1=S | inactive: -17.5% | 
CCN(C(=O)COC(=O)/C=C/c1ccc2c(c1)OCO2)c1c(N)n(Cc2ccccc2)c(=O)[nH]c1=O |  | inconclusive [inhibitor, single point]
O=C1NC[C@@H](CCCCN2C[C@H](Cc3ccc(O)cc3)N(CC3CCCCC3)C(=O)C2=O)N(CCC2CCCCC2)C1=O | inactive: 3.16% | 
CC1CCN(C(=O)COC(=O)c2n[nH]c3ccccc23)CC1 | inactive: -5.71% | 

SMILES | activity change, negative = growth inhibition | Potency
CN(CCc1ccccn1)C(=O)CCC1CCCN(C(=O)NC2CCCCC2)C1 (stereo unspecified) | inactive: 8.63% | 
O=C(CSc1nnc(COc2ccc(F)cc2)o1)N1c2ccccc2CCc2ccccc21 |  | inconclusive [inhibitor, single point]
CCOC(=O)C1=C(C)n2c(s/c(=C/c3cccc([N+](=O)[O-])c3)c2=O)=NC1c1ccc(O)c(OC)c1 (stereo unspecified) |  | active: 16.4 µM
COc1ccc(/C=C/C(=O)Nc2cccc(F)c2)cc1S(=O)(=O)N1CCOCC1 |  | inconclusive [inhibitor, partial curve]
Cc1ccc(N(Cc2ccccc2)C(=O)c2cc(S(=O)(=O)N3CCOCC3)ccc2C)cc1 |  | active: 20.6 µM
O=C(COc1ccccc1/C=C\c1[nH]c(=O)[nH]c(=O)c1[N+](=O)[O-])Nc1ccccc1 | inactive: -3.77% | 
O=C(NC1CCCC1)c1ccccc1OCc1ccccc1 |  | inconclusive [inhibitor, single point]
Cc1cc(C(=O)Nc2nnc(C3CCCCC3)s2)no1 | inactive: -17.7% | 
O=S1(=O)c2c(F)cccc2OC(COCc2ccccc2)CN1C1CCCC1 (stereo unspecified) |  | inconclusive [inhibitor, single point]
CC1CCN(c2nc3c(c(=O)n(C)c(=O)n3C)n2CCSc2ncccn2)CC1 |  | inconclusive [inhibitor, partial curve]
CC1CCCCN1C(=O)c1ccc(C(=O)Nc2ccc(F)cc2)cc1 (stereo unspecified) | inactive: -28% | 
COc1cc2c(cc1OC)C(c1ccc(Br)cc1)NCC2 (stereo unspecified) |  | inconclusive [inhibitor, partial curve]
CN(c1ccccc1)S(=O)(=O)c1ccc(C(=O)NCc2ccco2)cc1 |  | inconclusive [inhibitor, single point]
COc1cc(C2C3=C(CC(C)(C)CC3=O)N(C)C3=C2C(=O)CC(C)(C)C3)cc(Br)c1O | inactive: -6.36% | 
COc1ccc(-c2cc(C(F)(F)F)n3ncc(-c4ccccc4)c3n2)cc1 |  | inconclusive [inhibitor, partial curve]
Cc1c(Cl)cccc1-n1c(SCC(=O)N(C)Cc2ccccc2)nnc1-c1ccncc1 |  | inconclusive [inhibitor, single point]
COc1ccc(OCCOC(=O)c2cc(S(=O)(=O)N3CCOCC3)c(Cl)cc2Cl)cc1 |  | inconclusive [inhibitor, single point]
Cc1cc(C)c(NC(=O)C2CCN(C(=O)N3CCOc4ccccc43)CC2)c(C)c1 |  | inconclusive [inhibitor, single point]
COc1cc2c(cc1NC(=O)COc1ccc(Br)cc1)oc1ccccc12 |  | inconclusive [inhibitor, partial curve, poor fit]
COc1cccc(C(C)(O)c2nc(/C=C/c3ccccc3)cs2)c1 (stereo unspecified) |  | inconclusive [inhibitor, single point]
CCC1CCc2c(sc3ncnc(N4CCOCC4)c23)C1 (stereo unspecified) |  | inconclusive [inhibitor, single point]
O=C1C=C(c2ccc3c(c2)OCCO3)C[C@@H](c2ccc(F)cc2)C1 |  | inconclusive [inhibitor, single point]
Cc1ccc(-c2nc3c(c(=O)[nH]c(=O)n3CC(C)C)n2CC(C)C)cc1[N+](=O)[O-] |  | inconclusive [inhibitor, single point]
COc1ccc(CNC(=O)Nc2nc(C(N)Cc3ccc(Cl)cc3)cs2)cc1 (stereo unspecified) |  | active: 23.1 µM

SMILES | activity change, negative = growth inhibition | Potency
Cc1cccc(C)c1NC(=O)Cn1c(=O)c2cccn2c2ccccc21 |  | inconclusive [inhibitor, partial curve]
CCn1c2ccccc2c2cc(NC(=O)C3CCN(S(=O)(=O)c4cccs4)CC3)ccc21 |  | active: 16.4 µM
O=C(OCc1ccccc1)c1c(-c2ccccc2)oc2c1C(OCCO)CCC2 (stereo unspecified) |  | inconclusive [inhibitor, single point]
COc1ccccc1NC(=O)CSc1nc(=O)n(Cc2ccncc2)c2c1CCCC2 | inactive: 3.64% | 
COc1cc(NC(=O)c2ccccc2)c(OC)cc1NC(=O)Cc1ccc(F)cc1 | inactive: -0.84% | 
Cc1ccc(S(=O)(=O)CC(=O)Nc2nc3c(C)cccc3s2)cc1 | inactive: 0.634% | 
O=C(N/C(=C/c1cccnc1)C(=O)N1CCOCC1)c1ccccc1F | inactive: -5.08% | 
O=C(C1CCCN(S(=O)(=O)c2ccccc2)C1)N1CCN(c2ccc(F)cc2)CC1 (stereo unspecified) |  | active: 11.6 µM
Cc1cc(C(=S)N2CCOCC2)c(C)n1-c1ccc(Cl)cc1 |  | active: 20.6 µM
CCN1CCN(C(=O)C2CCN(c3nnc(C)c4c(C)n(-c5ccc(C)cc5)nc34)CC2)CC1 | inconclusive: -31.6% [inhibitor] | 
Cc1nc2c(OCc3cccc(Cl)c3)cccn2c1N(C)Cc1cccs1 |  | active: 20.6 µM
COc1ccc(N2C(=O)C3C4C=CC(C5CC45)C3C2=O)c([N+](=O)[O-])c1 (stereo unspecified) | inactive: -19.3% | 
O=C(Nc1ccc(-c2nc3cccnc3s2)cc1)C1CCCO1 (stereo unspecified) |  | active: 23.1 µM
CSc1ccc(/C=C/c2nc3ccccc3n2S(=O)(=O)c2ccc(Br)cc2)cc1 |  | active: 14.6 µM
CNC(C)C#Cc1ccc2c(=O)c3cc(C)c(C)cc3oc2c1 (stereo unspecified) |  | inconclusive [inhibitor, single point]
Cc1ccc(N2CCN(Cc3nnc(-c4ccccc4F)o3)CC2)c(C)c1 |  | inconclusive [inhibitor, single point]
O=C(CSc1nc2[nH]c(=O)cc(O)c2s1)Nc1ccc(Cl)c(C(F)(F)F)c1 | inactive: -21% | 
O=Nc1c2cc3ccccc3[nH]c-2c2ccccc12 |  | inconclusive [inhibitor, single point]
CC(=O)N1CCc2cc(Br)cc(S(=O)(=O)NCCc3cccc(C)c3)c21 |  | inconclusive [inhibitor, single point]
N#Cc1ccc(CN2CCC3(CC2)CCN(S(=O)(=O)c2ccccc2)CC3)cc1 |  | inconclusive [inhibitor, single point]
COC(=O)c1ccc(Nc2cc(C)nc3ccccc23)cc1 |  | inconclusive [inhibitor, single point]
COc1ccccc1N1CCN(c2nc(CNC(=O)c3ccc4c(c3)OCO4)nc3ccccc23)CC1 |  | active: 18.4 µM
COc1ccccc1C(=O)Nc1ccccc1C(=O)NC1CCCCC1 |  | inconclusive [inhibitor, single point]
